PubChem BioAssay AID488969 (Vanderbilt High Throughput Screening Facility, 2010)
Whole data set: some 110,000 compounds, median “z-score” near -0.1, cut for the highest 2% near 2. The list shows a part of the results. Active and inactive are the calls of the source.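 Rule for the calls: active = z-score in the third read window above 3 or below -3; inactive = the rest.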

What follows are molecules tested against Metabotropic glutamate receptor 8 (Rattus norvegicus) (UniProt P70579) (assay: mGluR8 Gi/Go-coupled signaling modulation – cell-based, rat, thallium flux, HTS, primary screen (AID 488969)). Settings: HEK293 rat mGluR8, GIRK (G protein-gated inwardly rectifying potassium channel) thallium flux, FluoZin2; at 10 µM; stronger effect = higher value; submaximal glutamate (EC20) added with thallium.
Sequence of UniProt P70579 (P70579 whole entry, looked up): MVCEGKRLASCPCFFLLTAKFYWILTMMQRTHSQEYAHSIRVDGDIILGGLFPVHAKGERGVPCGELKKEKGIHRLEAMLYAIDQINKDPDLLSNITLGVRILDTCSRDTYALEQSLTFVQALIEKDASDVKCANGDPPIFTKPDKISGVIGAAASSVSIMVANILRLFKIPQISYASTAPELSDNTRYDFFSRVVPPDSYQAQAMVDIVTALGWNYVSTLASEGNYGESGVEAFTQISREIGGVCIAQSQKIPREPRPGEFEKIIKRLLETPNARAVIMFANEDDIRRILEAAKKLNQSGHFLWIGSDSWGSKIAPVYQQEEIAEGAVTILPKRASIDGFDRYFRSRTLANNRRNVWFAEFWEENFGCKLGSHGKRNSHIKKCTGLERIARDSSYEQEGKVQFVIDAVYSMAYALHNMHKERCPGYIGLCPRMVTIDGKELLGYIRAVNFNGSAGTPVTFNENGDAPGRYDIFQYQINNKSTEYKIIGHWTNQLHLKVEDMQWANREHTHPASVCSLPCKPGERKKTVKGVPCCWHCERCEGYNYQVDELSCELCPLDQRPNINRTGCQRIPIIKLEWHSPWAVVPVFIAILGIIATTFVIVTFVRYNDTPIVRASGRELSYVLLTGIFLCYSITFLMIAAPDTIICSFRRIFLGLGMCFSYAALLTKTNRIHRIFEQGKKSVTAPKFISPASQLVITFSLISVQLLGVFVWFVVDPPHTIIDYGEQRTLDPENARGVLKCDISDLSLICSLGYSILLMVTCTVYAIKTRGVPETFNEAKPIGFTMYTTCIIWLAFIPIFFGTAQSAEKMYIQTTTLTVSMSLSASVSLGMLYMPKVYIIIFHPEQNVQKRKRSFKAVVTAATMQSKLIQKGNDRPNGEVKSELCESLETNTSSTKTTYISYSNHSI

Point of comparison: `C=C(C)c1cccc(C(C)(C)NC(=O)Nc2ccc(C(C)=O)cc2)c1`, z-score -0.211. Against it:
- Cn1nnnc1SCC(=O)N1CCN(c2ccccc2)CC1 — higher, 0.637
- COC(=O)N(NC(=O)C(O)(c1ccccc1)c1ccccc1)c1ccc(C)cc1 — lower, -0.383
- O=C(NCc1cccs1)C1CCCCC1 — higher, -0.167
- COc1ccc(CCNc2oc(COc3ccc(F)cc3)nc2C#N)cc1 — higher, -0.0977
- CC(=O)N(C(C)=O)S(=O)(=O)c1ccc(N=NN2CCOCC2)cc1 — higher, -0.141
- CCOC(=O)C(NC(=O)CC)C(O)c1cccc([N+](=O)[O-])c1 (stereo not given) — higher, -0.0778
- CC(C)CNC(=O)c1cccc(NC(=O)Cc2ccc(Br)cc2)c1 — lower, -0.457
- CC(NC(=O)Cc1ccc(F)cc1)c1ccc(F)cc1 (stereo not given) — lower, -0.227
- c1ccc(OCCCN2CCCC2)cc1 — higher, 0.00842
- CCN(CC)C(=O)Cn1c(=O)n(CCCCCC(=O)Nc2ccccc2)c(=O)c2sccc21 — lower, -0.35
- Cc1ccnc2nc(C(=O)OCC(=O)Nc3ccc4c(c3)OC(F)(F)O4)nn12 — higher, 0.14
- COCCOC(=O)C1=C(C)Nc2nc(C)nn2C1c1ccc(F)cc1 (stereo not given) — lower, -0.236
- CCCC1CCc2c(sc(NC(=O)c3cccs3)c2C(N)=O)C1 (stereo not given) — higher, 0.0373
- O=C(OC(C(=O)NCC1CCCO1)c1ccc(F)cc1)c1cccs1 (stereo not given) — higher, -0.0339
- CCC1(C)Cc2c(sc3nc4n(c(=O)c23)CCS4)CO1 (stereo not given) — lower, -0.566
- Cc1ccc(C(=O)Nc2ccc(Br)c(C(F)(F)F)c2)cc1 — higher, -0.0791
- Brc1ccccc1-c1nnc(-c2cccnc2)o1 — higher, -0.13
- Cc1noc(C)c1S(=O)(=O)N1CCC(C(=O)N(C)Cc2ccccc2)CC1 — higher, -0.182
- COCCn1c(CN2CCN(C)CC2)nc2c1c(=O)n(C)c(=O)n2C — lower, -0.268
- CCN1CCCC1CNC(=O)C(NC(=O)C1CCC(C)CC1)C(C)C (stereo not given) — higher, 0.106
- CNC(=O)CN(C)S(=O)(=O)c1ccc(F)cc1 — lower, -0.224
- CN(CCOC(=O)c1ccccc1)Cc1ccccc1 — higher, -0.0538
- C#CCSc1nnc(-c2ccc(OC)cc2)o1 — higher, -0.173
- O=C(c1ccc2snnc2c1)N1CCN(c2ccccc2)CC1 — lower, -0.398
- O=C1CCCc2ccccc2N1Cc1c(Cl)cccc1Cl — lower, -1.28
- O=C(CSc1nnnn1-c1ccc2c(c1)OCCO2)c1cccc2c1OCCO2 — lower, -0.744
- CCOc1cccc(OCCOCCN(C)Cc2ccccc2)c1 — higher, 0.36
- COCCCn1c(SCc2nnc(-c3ccccc3)o2)nc2sc3c(c2c1=O)CCC3 — lower, -0.256
- CN(C)S(=O)(=O)c1cccc(C(=O)OCC(=O)NC2CCCc3ccccc32)c1 (stereo not given) — lower, -0.456
- Cc1ccc(-n2nnnc2-c2cnc(N3CCCC3)nc2C(F)(F)F)cc1 — lower, -0.229
- CC(=O)NCCNc1ccc([N+](=O)[O-])cn1 — higher, -0.107
- Cc1ccc(Cc2cnc(N3C(=N)SC(c4ccccc4)C3=O)s2)cc1 (stereo not given) — lower, -0.268
- CCOC(=O)c1[nH]c2c(c1C)C(=O)CC(c1ccc(OCC)c(OC)c1)C2 (stereo not given) — lower, -0.395
- c1ccc2c(c1)ncn2-c1ccc(-c2ccnc(-c3ccncc3)n2)cc1 — lower, -0.331
- Cc1cc(S(=O)(=O)N2CCN(c3ccccc3C)CC2)ccc1F — higher, -0.0508
- CCOC(=O)c1ccc(OCc2c(C)noc2C)cc1 — lower, -0.679
- CCCC(C)NC(=O)C1CCN(S(=O)(=O)c2ccccc2)CC1 (stereo not given) — lower, -0.301
- Cc1ccc(NC(=O)CN2C(=O)S/C(=C\c3cc(C)n(C)c3C)C2=O)cc1 — lower, -0.307
- Cc1cc(C(=O)Nc2cccc(C(=O)O)c2)c(C)o1 — lower, -0.457
- COc1ccc(N(C(=O)c2cccnc2)S(=O)(=O)c2ccc3c(c2)n(C)c(=O)n3C)cc1 — higher, 0.0313
- Cc1ccc(C(=O)CC2SC(N)=NC2=O)cc1 (stereo not given) — higher, 0.0278
- O=C(NNC(=S)Nc1ccc(Br)cc1Cl)c1ccncc1 — higher, 1.44
- O=C(NC(Cc1c[nH]c2ccccc12)C(=O)O)c1ccco1 (stereo not given) — lower, -0.347
- COc1cccc(CNC(=O)Cn2cc3c(n2)CCCCC3)c1 — higher, -0.00462
- CCNc1nnc(-c2ccncc2)s1 — lower, -0.233
- COc1ccc(Nc2nc(-c3cccs3)cs2)cc1 — higher, -0.0486
- COC(=O)Cn1cnc2ccccc2c1=O — higher, -0.0598
- COCCN1Cc2cccc(C(=O)N3CCN(c4cc(C)ccc4C)CC3)c2C1=O — higher, 0.281
- CC(NC(=O)Cc1c(F)cccc1Cl)C1CCCO1 (stereo not given) — higher, 0.00512
- Cc1noc(C)c1COC(=O)c1cc2ccccc2cc1O — lower, -0.301
- COc1ccc(S(=O)(=O)N(CCCN2CCOCC2)Cc2cccc3ccccc23)cc1 — higher, 0.0075
- Cc1cc(NC(=O)c2cc3nc(C4CC4)cc(C(F)(F)F)n3n2)no1 — higher, 0.0343
- O=C(CCNC(=O)Cn1ccc2ccccc2c1=O)NCCCN1CCN(c2ccc(F)cc2)CC1 — higher, 0.148
- C/C(=N\OC(=O)c1ccc(F)cc1)c1nccs1 — higher, 0.407
- COC(=O)c1sc(S(=O)(=O)N2CCN(c3ccc(OC)cc3)CC2)c(C(=O)OC)c1C — lower, -0.22
- O=C(NCc1ccccn1)c1ccc(CS(=O)(=O)Cc2ccc(Cl)cc2)o1 — higher, -0.182
- CCOC(=O)c1c(C)[nH]c(C(=O)NNC(=O)c2ccc(C(C)(C)C)cc2)c1C — higher, 0.0237
- Cc1[nH]n(-c2ccccc2)c(=O)c1-c1cccc(Cl)c1 — higher, 0.257
- CCOc1ccccc1-n1nnnc1SCc1nc2ccccc2s1 — higher, -0.0391
- O=C(Nc1nnc(Cc2ccc(Cl)cc2)s1)c1cccs1 — higher, -0.0593
- NS(=O)(=O)c1ccc(NC(=O)CSc2nnc(Cc3cccs3)n2-c2ccccc2)cc1 — higher, -0.158
- O=C(c1ccco1)N1CCN(Cc2cccc(F)c2)CC1 — higher, 0.086
- COc1ccc(-c2csc(C)n2)cc1OC — lower, -0.285
- CC1CCCN(S(=O)(=O)c2ccc(C(=O)Nc3ccccc3-c3nc4ccccc4[nH]3)cc2)C1 (stereo not given) — higher, -0.205
- COc1ccc(CCN2C(=O)c3[nH]nc(-c4ccccc4O)c3C2c2ccc(C)cc2)cc1OC (stereo not given) — higher, 0.636
- Cc1cccc(C)c1N(CC(=O)Nc1cc(Cl)ccc1Oc1ccccc1)S(C)(=O)=O — higher, 0.373
- CC12C(=O)N(c3ccccc3C(=O)O)C(=O)C1C1C=CC2C1 (stereo not given) — higher, 0.0405
- Cc1cc(C)nc(NS(=O)(=O)c2ccc(N/C=C\C(=O)c3ccc(Cl)cc3)cc2)n1 — higher, -0.142
- CN1CCN(C(=O)c2ccccc2-c2ccccc2C(=O)O)CC1 — higher, -0.138
- Cc1nc(N/C(N)=N/S(=O)(=O)c2ccc([N+](=O)[O-])cc2)nc2ccccc12 — higher, 0.523
- CCOC(=O)C1C(=O)NC(N2CCOCC2)=NC1c1ccco1 (stereo not given) — lower, -0.222
- COc1ccc(C(=O)O/N=C/c2c(C(F)(F)F)nn(C)c2SCc2ccccc2Cl)cc1 — higher, 0.622
- C=CCOc1cccc(/C=N/NC(=O)C(=O)NCc2ccco2)c1 — higher, 0.452
- O=C(C1CC1)n1cc(C(=S)N2CCOCC2)c2ccccc21 — higher, -0.165
- Cc1ccc2nsnc2c1S(=O)(=O)N1CCN(Cc2ccc3c(c2)OCO3)CC1 — higher, -0.0391
- C=CCNC(=O)c1snnc1-c1ccccc1 — higher, -0.0951
- COC(=O)c1cnn(-c2cc(Oc3ccccc3)ncn2)c1N — higher, -0.178
- Cc1cc(NS(=O)(=O)c2ccc(NC(=O)C(C(C)C)N3C(=O)c4ccccc4C3=O)cc2)nc(C)n1 (stereo not given) — higher, 1.19
- CCOC(=O)CSc1nc2cc(OC)ccc2cc1C#N — lower, -0.215
- Cc1ccc(-n2c(C)cc(C(=O)COC(=O)C3=NNC(=O)CC3)c2C)cc1 — lower, -0.922
- N#CC1=C(O)CCCn2c1nc1ccccc1c2=O — lower, -0.569
- Cc1ccccc1OCC(=O)Nc1ccc2c(c1)C(=O)c1ccccc1C2=O — higher, 0.18
- CC(=O)Nc1ccc(C)cc1NC(C)=O — higher, -0.00242
- O=S(=O)(Nc1ccc2c(c1)nc1n2CCOC1)c1ccc(Cl)cc1 — higher, -0.0886
- CCOC(=O)N1CCN(C(=O)c2ccc(C)c(S(=O)(=O)Nc3ccccc3)c2)CC1 — higher, -0.0994
- O=[N+]([O-])c1ccc(N2CCN(S(=O)(=O)c3ccccc3)CC2)cc1NCCN1CCOCC1 — lower, -0.342
- Cc1ccc(NC(=O)c2nc[nH]c2C(=O)N2CCCCC2)c(C(=O)c2ccccc2)c1 — lower, -0.675
- Cc1cc(C(=O)N2CCCc3ccccc32)no1 — higher, 0.411
- O=C1c2cccc3cccc(c23)C(=O)N1CCN1CCN(CC(O)COc2ccc3ccccc3c2)CC1 (stereo not given) — higher, 0.0371
- CCOc1ccc2[nH]c(=O)c(CN(Cc3cccnc3)C(=O)Nc3ccccc3OC)cc2c1 — lower, -0.284
- O=C(O)c1ccc(NC(=S)NC2CCCCC2)cc1 — higher, 0.13
- CCOC(=O)c1c(NC(=O)Cc2cccs2)sc(C(=O)NC2CCCCC2)c1C — lower, -0.382
- N#Cc1ccc(NC(=O)c2sc3cc(C(F)(F)F)cnc3c2-c2cccs2)cc1 — higher, 0.118
- COc1ccc(C2C(C(=O)Nc3cccnc3)=C(C)Nc3nc(-c4cccs4)nn32)cc1OC (stereo not given) — lower, -0.25
- CC1CN(CC(=O)Nc2ccccc2Sc2ccccc2)CC(C)O1 (stereo not given) — higher, -0.148
- CCOc1c2ccc(C(=O)NCc3ccc(OC(F)(F)F)cc3)cc2nn1CC — lower, -0.277
- CCCOc1ccc(N2C(=O)C3C(C(C)C)NC4(C(=O)c5ccccc5C4=O)C3C2=O)cc1 (stereo not given) — higher, 0.251
- CCOC(=O)N/N=C\c1ccc([N+](=O)[O-])o1 — higher, 0.19
- COc1ccc(OC)c(NC(=O)c2ccc3c(=O)n(CCc4ccccc4)c(=S)[nH]c3c2)c1 — higher, 1.14
- O=C(CCC1CCCC1)c1c(O)c2ccccc2oc1=O — higher, 0.412
- Cc1ccc(C(=O)N/C(=C/c2ccc(-c3ccc(Br)cc3)o2)C(=O)NC2CCS(=O)(=O)C2)cc1 (stereo not given) — higher, -0.135
- COc1cc(Br)cc(C=Nc2cccc(C(F)(F)F)c2)c1O — lower, -0.62
- O=[N+]([O-])c1ccc(N2CCN(S(=O)(=O)c3ccc4ccccc4c3)CC2)cc1NCC1CCCO1 (stereo not given) — higher, -0.161
- NNS(=O)(=O)c1ccc(Cc2ncc(C(F)(F)F)cc2Cl)s1 — higher, -0.119
- CC1Cc2nc(SCC(=O)N3CCCc4ccccc43)n(C)c(=O)c2S1 (stereo not given) — lower, -1
- Oc1c(Br)cc(Br)cc1/C=N/c1nc2c(s1)CCCC2 — lower, -0.401
- CC12CCC(C(=O)NCc3ccc4c(c3)OCO4)(C(=O)C1=O)C2(C)C (stereo not given) — higher, 1.52
- O=C(Nc1ccc2nc3n(c(=O)c2c1)CCCC3)c1cc([N+](=O)[O-])ccc1F — lower, -0.759

For `Cc1ccc(-c2[nH]n3c(=O)c4c(nc3c2C)CCCC4)cc1`, the z-score was active: 11.
